Assay results published in the supplement of paper PMC10126150.
Sequences with one replicate were seen in a single cluster, so their values are uncertain.

tested on: ATP; experiment: switch fluorescence ratio, 500 uM ATP over buffer (Cy3 cluster intensity, sum of 5 cycles each) (fold (ratio)); higher = stronger signal-on switching upon ATP binding; sequences stand for … in TCGTCGGCAGCGTCAGATGTGTATAAGAGACAGTTTTTTTTTTTTTTTTTTTTTTTTT…TC; conditions: aptamer strand: ATP DNA aptamer (quencher-CACCTGGGGGAGTATTGCGGAGGAAGG + anchor), 100 nM annealed; ATP concentration: 500 uM; one replicate
How it was run: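 Five buffer/ATP imaging cycles were run on Cy3-labelled switching-strand clusters on a modified Illumina MiSeq flow-cell, with NaOH stripping and re-annealing between cycles. In each cycle, clusters annealed to 100 nM quencher-labelled ATP aptamer were imaged in selection buffer, then after 15 min with 500 uM ATP at 22 °C. Per cluster, the fluorescence ratio is summed target-cycle over summed buffer-cycle Cy3 intensity, averaged per switch-domain sequence. Only clusters within 100-1000 RFU were kept.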
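Note: ATP exposure 15 min at 22 °C before imaging.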

Row | Sequence | switch fluorescence ratio
1 | ATTTTGGCTG | 1
2 | ATTTTTAACG | 0.981
3 | ATTTTTACAT | 1
4 | ATTTTTAGTC | 1.04
5 | ATTTTTCCGC | 1.04
6 | ATTTTTGCAG | 0.978
7 | ATTTTTGCTA | 0.974
8 | ATTTTTTAAT | 0.94
9 | ATTTTTTGAT | 0.991
10 | CAAAAATAGA | 1.03
11 | CAAAAGAATC | 0.986
12 | CAAAAGGTTT | 1.04
13 | CAAACCCCGC | 1.67
14 | CAAACGACTA | 1.06
15 | CAAACGAGGG | 1.01
16 | CAAACGGGAG | 1.03
17 | CAAACTGATT | 1.04
18 | CAAAGAAGAG | 1.01
19 | CAAAGATA | 1.01
20 | CAAAGATACT | 1.05
21 | CAAAGCAGCA | 1.07
22 | CAAAGCATTG | 1.03
23 | CAAAGCGCCC | 1.14
24 | CAAAGGACG | 1.03
25 | CAAAGGTATT | 0.984
26 | CAAAGTGCTA | 1.02

Row | Sequence | switch fluorescence ratio
27 | CAAATAATA | 0.984
28 | CAAATATATG | 1.04
29 | CAAATCCGAT | 0.973
30 | CAAATGTGGT | 0.995
31 | CAAATTCCA | 0.995
32 | CAAATTTCC | 1.1
33 | CAAATTTCGG | 0.98
34 | CAAATTTGCA | 1.02
35 | CAACAAAATT | 1.01
36 | CAACAACCT | 1.31
37 | CAACAACGAG | 1.01
38 | CAACACTGGT | 1.04
39 | CAACAGACTT | 1.02
40 | CAACAGCCGT | 0.987
41 | CAACCACGGA | 1.13
42 | CAACCCTAGC | 1.07
43 | CAACCCTCGA | 1.03
44 | CAACCGGTGG | 1.02
45 | CAACCTAATG | 0.993
46 | CAACGCTAGA | 1.26
47 | CAACGCTCGG | 1.04
48 | CAACGTGTTT | 0.993
49 | CAACGTTGGC | 0.98
50 | CAACTACTG | 1.07
51 | CAACTGAGAT | 0.992
52 | CAACTGTTG | 1.01

Row | Sequence | switch fluorescence ratio
53 | CAACTTCGGC | 1
54 | CAACTTTATA | 1.02
55 | CAACTTTATC | 0.989
56 | CAAGACGGGG | 1.03
57 | CAAGACGTCG | 0.948
58 | CAAGAGATG | 1.01
59 | CAAGATAAAG | 1.01
60 | CAAGATAATG | 0.964
61 | CAAGATCCCA | 1.03
62 | CAAGATCGTA | 0.958
63 | CAAGATGGCG | 1.09
64 | CAAGATTTGT | 1.03
65 | CAAGCATCTC | 1.26
66 | CAAGCCTCCC | 1.96
67 | CAAGCGAACC | 1.08
68 | CAAGGAGTCA | 0.995
69 | CAAGGGGATA | 0.989
70 | CAAGGGGG | 0.978
71 | CAAGGGTAAA | 0.979
72 | CAAGGTACG | 1.03
73 | CAAGGTCAAC | 1.06
74 | CAAGTAGCGT | 0.966
75 | CAAGTATAGA | 1
76 | CAAGTCACCT | 1.18
77 | CAAGTCCTGT | 0.986
78 | CAAGTCGCCA | 0.994

Row | Sequence | switch fluorescence ratio
79 | CAAGTCTGTG | 0.922
80 | CAAGTGCAGG | 1.05
81 | CAAGTGGGTT | 1.02
82 | CAAGTTTATA | 0.923
83 | CAATAAATTT | 0.97
84 | CAATAAGGAA | 1
85 | CAATACTTGT | 1.04
86 | CAATATAAAA | 1.01
87 | CAATATGGTA | 0.987
88 | CAATATTCCT | 1.22
89 | CAATCACTT | 0.967
90 | CAATCATACA | 1.05
91 | CAATCCCCGC | 1.2
92 | CAATCCGAAC | 1.26
93 | CAATCTGCTA | 1.1
94 | CAATCTGGTT | 1.02
95 | CAATGAACAT | 1.04
96 | CAATGACTCA | 1.03
97 | CAATGACTTT | 1.07
98 | CAATGAGACC | 1.07
99 | CAATGATTAT | 0.967
100 | CAATGCATCT | 1
101 | CAATGCGTCG | 0.997
102 | CAATGGAGCG | 1.08
103 | CAATGGGATG | 0.998
104 | CAATGGGCCT | 0.984

Row | Sequence | switch fluorescence ratio
105 | CAATGGGG | 1.01
106 | CAATGTTGGG | 1.06
107 | CAATTAAGG | 0.999
108 | CAATTAGAAT | 1.01
109 | CAATTAGCAG | 1
110 | CAATTAGGCG | 1.03
111 | CAATTAGGCT | 1.01
112 | CAATTATGTG | 0.957
113 | CAATTCTGTT | 1.02
114 | CAATTGCCAG | 1.02
115 | CAATTGGAGA | 0.952
116 | CAATTGGGCC | 0.991
117 | CAATTTAACG | 0.964
118 | CACAAAGAGG | 1.03
119 | CACAACACAA | 1.07
120 | CACAACGGGG | 1.01
121 | CACAAGGGTC | 0.969
122 | CACAAGTCGG | 0.988
123 | CACAATTTAG | 0.988
124 | CACACAAGCC | 1.09
125 | CACACGGGAC | 1.43
126 | CACACGGTTG | 1.07
127 | CACACTAATC | 1.03
128 | CACACTACTG | 1.24
129 | CACACTCTTC | 0.966
130 | CACACTGCAG | 1.03

Row | Sequence | switch fluorescence ratio
131 | CACAGAAGGG | 1.01
132 | CACAGAGTGT | 1.04
133 | CACAGGATTG | 0.952
134 | CACAGGGTGG | 0.984
135 | CACAGGTCGA | 1.04
136 | CACAGTATCC | 1.07
137 | CACAGTATTA | 1.07
138 | CACAGTCACA | 1.14
139 | CACATGCAGG | 1.02
140 | CACATGGGCG | 0.934
141 | CACATGGTTC | 1.05
142 | CACCAAAGTC | 0.928
143 | CACCAAATTT | 1.07
144 | CACCAAGGGG | 1.73
145 | CACCCACAT | 1.05
146 | CACCCGCGGA | 1.05
147 | CACCCGGGAT | 1.14
148 | CACCGAAGAG | 1.05
149 | CACCGGGCTG | 1.16
150 | CACCGGGTT | 1.04
151 | CACCTATCCG | 0.985
152 | CACCTGTGCC | 1.04
153 | CACCTTCTCA | 1.19
154 | CACCTTGCCC | 1.17
155 | CACGAGAGAG | 1.01
156 | CACGAGAGTT | 1.03

Row | Sequence | switch fluorescence ratio
157 | CACGAGTGGT | 1.02
158 | CACGATAAAC | 1.1
159 | CACGATTGA | 0.998
160 | CACGCATTTG | 1.11
161 | CACGCCCCTG | 1.08
162 | CACGCGGTGC | 3.05
163 | CACGCTTGTC | 1.08
164 | CACGGAGTGC | 1.03
165 | CACGGCCGCT | 1.06
166 | CACGGCTGAC | 1.4
167 | CACGGGCAGC | 1.08
168 | CACGGGTGGG | 1.02
169 | CACGGGTGGT | 1.1
170 | CACGGTACCA | 1.33
171 | CACGTACTGA | 1.56
172 | CACGTAGGCA | 1.07
173 | CACGTGACGC | 1.18
174 | CACGTGACTA | 1.14
175 | CACGTTTGAT | 1
176 | CACGTTTTTA | 0.971
177 | CACTAAAACC | 1.06
178 | CACTAAGCCA | 1.03
179 | CACTAAGCGG | 1.03
180 | CACTAAGTGA | 0.982
181 | CACTACCGCA | 1.06
182 | CACTACTTT | 1.03

Row | Sequence | switch fluorescence ratio
183 | CACTAGAAAG | 1
184 | CACTAGAAGT | 1.01
185 | CACTAGCGGT | 1.02
186 | CACTAGGCC | 1.01
187 | CACTAGTCGG | 0.99
188 | CACTATCGAC | 1.08
189 | CACTATTGTA | 1
190 | CACTCCTGAT | 1.01
191 | CACTGAATGT | 1.01
192 | CACTGATATT | 1.1
193 | CACTGCTGG | 1.02
194 | CACTGGAACG | 0.958
195 | CACTGGCTAT | 1
196 | CACTGGGTG | 1.33
197 | CACTGGTCG | 1.05
198 | CACTGTGTAC | 1.26
199 | CACTTGGTTC | 0.994
200 | CACTTTCATT | 1.04
201 | CACTTTGAGC | 1.08
